Test results published in the supplement of paper PMC4604168 (melanoma cell lines).
This is one part of the list. Many values rest on one well or one pass, so single values are uncertain.

Test system: RVH-421
Assay: cell count relative to DMSO control; melanoma cells; higher = more viable cells
Settings: library dose: low library concentration; 72 h
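Note: cell number obtained by counting DAPI-stained nuclei in high-throughput microscope images with image analysis software, screen run in 1,536-well plates.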

SMILES | cell count
CC(=O)c1c(C)c2cnc(Nc3ccc(N4CCNCC4)cn3)nc2n(C2CCCC2)c1=O [palbociclib] + NCC(=O)Nc1ccc(-n2nc(C(F)(F)F)cc2-c2ccc3c(ccc4ccccc43)c2)cc1 [OSU03012] (first compound 0.04 µM, partner dose 1 µM) | 90.3%
CC(=O)O[C@@]12CO[C@@H]1C[C@H](O)[C@@]1(C)C(=O)[C@H](O)C3=C(C)[C@@H](OC(=O)[C@H](O)[C@@H](NC(=O)OC(C)(C)C)c4ccccc4)C[C@@](O)([C@@H](OC(=O)c4ccccc4)[C@H]21)C3(C)C [Docetaxel] + CC(C)CCN1c2nc(Nc3cc(F)c(O)c(F)c3)ncc2N(C)C(=O)C1C [BID1870] (first compound 0.0001 µM, partner dose 0.2 µM) | 85.4%
CC(=O)c1c(C)c2cnc(Nc3ccc(N4CCNCC4)cn3)nc2n(C2CCCC2)c1=O [palbociclib] + O=C(CCCCCCC(=O)Nc1ccccc1)NO [vorinostat] (first compound 0.04 µM, partner dose 0.08 µM) | 89.4%
CC(=O)c1c(C)c2cnc(Nc3ccc(N4CCNCC4)cn3)nc2n(C2CCCC2)c1=O [palbociclib] + CC1(C)NC(=O)N(c2ccc([N+](=O)[O-])c(C(F)(F)F)c2)C1=O [nilutamide] (first compound 0.04 µM, partner dose 1 µM) | 83.8%
Nc1ncn([C@H]2C[C@H](O)[C@@H](CO)O2)c(=O)n1 [decitabine] + O=C(O)c1ccc(-c2c[nH]c3ncc(-c4ccccc4)cc23)cc1C1CCCC1 [GSK650394] (first compound 0.1 µM, partner dose 0.16 µM) | 95.3%
